Reference: PubChem BioAssay AID1508642 (National Center for Advancing Translational Sciences (NCATS), 2021)
Among all 43,000 compounds or so, about 200 (0.47%) were called active. Roughly 12% stayed inconclusive and do not appear here. The call rests on the fitted dose curve; in most records, active means well fitted cell-killing curve with a large enough effect; inconclusive means small, poorly fitted or top-dose-only effect, or effect the other way; inactive means flat fitted curve, though single readings scatter. The list shows a part of the results.

Experiment: Cell viability qHTS assay in S16 Pmp22-F2sN cells; further: nearly all actives have a fitted effect of over 65% in size
Conditions: S16 Pmp22-F2sN Schwann cells viability, CellTiter-Glo, 24 h; series mostly up to 57.5 µM; activity change, negative = cytotoxicity: at the top concentration
In short: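 S16 Pmp22-F2sN Schwann cells (500-1,000/well) in phenol-red-free DMEM with 10% FBS received 23 nL compound by pin tool for 24 h at 37 °C. Viability was then read as CellTiter-Glo luminescence after 15 min at room temperature.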
On the % scale 0 is the no-effect control and ±100 the full control effect; potency means the concentration at half of the fitted maximal effect.

Row | Structure (SMILES) | activity change, negative = cytotoxicity | Potency
1 | CCOC(=O)c1ccc(CSc2nnc3cc(C)c4ccccc4n23)cc1 | inactive: -0.66% | –
2 | O=C(NC1CCCCC1)c1ccc2c(c1)sc1nc(-c3ccccc3)cn12 | inactive: -2.35% | –
3 | CCN(CC)c1ccc(NS(=O)(=O)c2ccc3c(c2)CCCN3C(C)=O)c(C)c1 | inactive: -12.8% | –
4 | COC(=O)c1cc2oc(C)cc2n1Cc1c(C)cc(C)cc1C | inactive: -2.9% | –
5 | COc1cc2c(=O)n(Cc3ccccc3)c(=O)n(CC(=O)Nc3cc(C(F)(F)F)ccc3Cl)c2cc1OC | inactive: 3.42% | –
6 | CN1C(C(=O)Nc2ccc(OC(F)(F)F)cc2)=CC(c2ccc3c(c2)OCO3)=NS1(=O)=O | inactive: 0.169% | –
7 | O=C(Cn1cccc1C(=O)c1ccccc1)NCc1ccc(F)cc1 | inactive: 0.978% | –
8 | Cc1ccc(OC(=O)c2snnc2C)cc1C | inactive: 5.25% | –
9 | Cc1ccc(NC(=O)C(=O)NCC(c2ccc3c(c2)OCO3)N2CCOCC2)c(C)c1 (stereo not given) | inactive: 8.15% | –
10 | O=C(CSc1ncc2c(n1)-c1ccccc1N(Cc1ccc(F)cc1)S2(=O)=O)c1ccc(Br)cc1 | inactive: 12.3% | –
11 | CCCN1CCN(CCNC(=O)Nc2cc(OC)cc(OC)c2)CC1 | inactive: -1.51% | –
12 | COc1ccc(C2c3c(n(C)c4ccccc34)C(=O)N2CC(=O)Nc2ccc(Cl)cc2)cc1 (stereo not given) | inactive: 0.517% | –
13 | CCc1ccc(N2CCn3c2nc2c3c(=O)n(Cc3cccc(C)c3)c(=O)n2C)cc1 | inactive: 20% | –
14 | CCOC(=O)c1c(C)oc2ncnc(NCCc3ccccc3)c12 | inactive: -17.7% | –
15 | COc1cc2nc(SCC(=O)Nc3ccc(F)cc3)n3nc(CCn4c(C)nc5ccccc54)nc3c2cc1OC | inactive: 17.3% | –
16 | CCOc1ccc2nc(N3CCCC(C(=O)Nc4ccc(Br)c(C)c4)C3)sc2c1 (stereo not given) | inactive: -0.886% | –
17 | CCC(=O)N1CCc2cc(Br)cc(S(=O)(=O)N3CCN(c4ccccc4)CC3)c21 | inactive: 7.2% | –
18 | COc1ccc(CNC(=O)C2CCCN(S(=O)(=O)c3ccc4c(c3)CCCN4C(C)=O)C2)cc1 (stereo not given) | inactive: -21.9% | –
19 | CCc1nnc2c(NCc3ccc(F)cc3)nc3ccccc3n12 | inactive: 1.04% | –
20 | COc1ccccc1N1CCN(C(=O)c2oc3ccccc3c2NC(=O)C(C)Oc2ccccc2)CC1 (stereo not given) | inactive: 2.43% | –
21 | Cc1ccc(C(C)C)c(OCCn2cc(C(=O)c3ccco3)c3ccccc32)c1 | inactive: -7.81% | –
22 | O=C(Nc1cc(Cl)cc(Cl)c1)c1ccc(F)c(S(=O)(=O)N2CCCCCC2)c1 | inactive: 21% | –
23 | COc1ccc2c(c1)CC(C(=O)N1CCC(C(N)=O)CC1)CO2 (stereo not given) | inactive: -0.314% | –
24 | COc1ccc(CCNC(=O)c2cc(Sc3cccc(Cl)c3)nc3ccccc23)cc1OC | inactive: -18% | –

Row | Structure (SMILES) | activity change, negative = cytotoxicity | Potency
25 | COc1ccc2c(c1)NC(c1ccc(OCC(C)C)cc1)=NC(c1ccncc1)=N2 | inactive: 3.44% | –
26 | Cc1ccc(NC(=O)Cn2c(=O)n(Cc3ccco3)c(=O)c3ccccc32)cc1 | inactive: 23.3% | –
27 | CCOc1ccc(CNC(=O)c2cc3c(=O)n(C)c4ccccc4c3s2)cc1 | inactive: 2.37% | –
28 | O=C(c1ccc2c(c1)OCCO2)N(Cc1cccnc1)c1nc2ccc(F)cc2s1 | inactive: 4.52% | –
29 | O=C(Cn1cc(SCc2cccc(Cl)c2)c2ccccc21)N1CCOCC1 | inactive: 2.93% | –
30 | O=c1[nH]c(SCc2ccc(F)cc2)nc2c1CCCC2 | inactive: -5.44% | –
31 | COc1cc(C(=O)NC2CC(=O)N(c3cccc(F)c3)C2)cc(OC)c1OC (stereo not given) | inactive: -8.24% | –
32 | Cc1ccc(NC(=O)C2CCCN2S(=O)(=O)c2cccc3cccnc23)cc1 (stereo not given) | inactive: 13.6% | –
33 | COc1ccc(-c2ccnc3c(-c4ccc(F)cc4)c(C)nn23)cc1OC | inactive: 14.6% | –
34 | CC1CN(C(=O)N2CCC(C(=O)NC3CCCCCC3)CC2)c2cc(Cl)ccc2O1 (stereo not given) | inactive: -13.4% | –
35 | Cc1cc(C)n2nc(CNS(=O)(=O)c3ccc(Cl)cc3)nc2n1 | inactive: 3.77% | –
36 | COc1ccc(-c2noc(-c3ccc(NCc4ccccc4OC)c([N+](=O)[O-])c3)n2)cc1 | inactive: 3.62% | –
37 | Cc1ccc(C2=Nc3ccccc3N(CC(=O)Nc3cccc(F)c3)C(=O)C2)cc1C | inactive: -28.6% | –
38 | CC(=O)Nc1cccc(C(=O)NCc2ccc3c(c2)CCN3C(C)=O)c1 | inactive: 12.1% | –
39 | CCn1cc(C(=O)NCCc2ccccc2)c(=O)c2cc(S(=O)(=O)N(C)C3CCCCC3)ccc21 | inactive: 0.858% | –
40 | CCOc1ccccc1N(C)C(=O)C1CCCN(c2ncnc3onc(-c4ccc(F)cc4)c23)C1 (stereo not given) | inactive: 2.35% | –
41 | Cc1c(CCNC(=O)Cc2ccccc2)sc2nc(-c3ccc(F)cc3)nn12 | inactive: -23.2% | –
42 | O=C(CN1CCN(Cc2ccc(Cl)cc2)C1=O)NCc1ccc(F)cc1 | inactive: 1.11% | –
43 | CN(C)CCCNc1oc(/C=C/c2ccc(F)cc2)nc1C#N | inactive: -1.4% | –
44 | Cc1ccc(NC(=O)CCCn2c(=O)c3cccn3c3cccnc32)c(Cl)c1 | inactive: 29.4% | –
45 | O=c1oc2c3c(ccc2c2ccccc12)OCN(Cc1cccc(Cl)c1)C3 | inactive: 13.3% | –
46 | CCOc1ccc(-c2cnc(NCc3ccc(OC)cc3OC)n2C)cc1 | inactive: -2.01% | –
47 | COCCNC(=O)C1CCCN(S(=O)(=O)c2ccc3c(ccn3C)c2)C1 (stereo not given) | inactive: 1.13% | –
48 | Cn1nc(C(=O)N2CCN(c3ccccc3F)CC2)c2c1-c1ccccc1SC2 | inactive: 8.21% | –

Row | Structure (SMILES) | activity change, negative = cytotoxicity | Potency
49 | O=C1c2oc3ccc(F)cc3c(=O)c2C(c2cccc([N+](=O)[O-])c2)N1CCCN1CCOCC1 (stereo not given) | inactive: 0.374% | –
50 | Cc1ccc(NC(=O)c2cccn2-c2nnc(N3CCCCC3)s2)cc1Cl | inactive: -3.44% | –
51 | CCN(CC)CCNC(=O)Cn1ncc2c([nH]c3ccccc32)c1=O | inactive: 10.3% | –
52 | CCCCN(CC)CCCNC(=O)c1cc2c(-c3ccc(OC)c(OC)c3)nn(C)c2s1 | inactive: -28.8% | –
53 | CCCCNC(=O)CCCn1c(=O)c2ccccc2n(Cc2ccccc2C)c1=O | inactive: -1.33% | –
54 | CCc1c(C)sc2c1CCN(Cc1ccc(F)cc1)C2c1ccccc1 (stereo not given) | – | active: 8.91 µM
55 | Cc1ccc2nc(N(Cc3cccnc3)C(=O)C3COc4ccccc4O3)sc2c1 (stereo not given) | inactive: 2.36% | –
56 | CCc1ccc(CN(C(=O)c2cc3ccccc3oc2=O)C2CCS(=O)(=O)C2)cc1 (stereo not given) | inactive: -7.94% | –
57 | COc1ccc(Cl)cc1NC(=O)CCC(=O)c1ccc(C)cc1 | inactive: 2.53% | –
58 | CC(=O)c1ccc(NC(=O)c2ncn(-c3ccccc3)n2)cc1 | inactive: 9.36% | –
59 | Cc1cc(O)c(C(c2ccccc2Cl)N2CCN(c3ccccc3)CC2)c(=O)n1Cc1ccco1 (stereo not given) | inactive: -25.2% | –
60 | Cc1ccc(C)c(NC(=O)CCCn2nc(C)c3sc4ccccc4c3c2=O)c1 | inactive: 3.54% | –
61 | COc1cc(NC(=O)c2cnn(-c3cccc(F)c3)c2C2CCNCC2)cc(OC)c1OC | inactive: -2.65% | –
62 | CCc1nnc(NC(=O)CSCc2cc(=O)c3ccc(C)cc3[nH]2)s1 | inactive: 8.61% | –
63 | COc1ccc(NC(=O)CN(Cc2ccccc2)S(=O)(=O)c2ccc3nc(C)sc3c2)cc1 | inactive: -0.77% | –
64 | COc1ccc(CNC(=O)CC2N=C3c4ccccc4N=C(SCC(=O)Nc4ccc(N(C)C)cc4)N3C2=O)cc1 (stereo not given) | inactive: -2.27% | –
65 | O=C(CSc1oc(-c2ccco2)nc1S(=O)(=O)c1ccc(Cl)cc1)c1ccc(Cl)cc1 | inactive: -0.558% | –
66 | Cc1ccc2oc(=O)c3cc(C(=O)N(Cc4ccccc4)C(C)C)sc3c2c1 | inactive: -11.2% | –
67 | CCN1CCC(N(Cc2cccc(OC)c2)C(=O)Nc2ccc(C)cc2Cl)CC1 | inactive: -19% | –
68 | Cc1ccc(CSc2nc(=O)c3c(n2C)NC(=O)CC3c2ccc(OC(C)C)cc2)cc1 (stereo not given) | inactive: 3.04% | –
69 | CCCCCNC(=O)C(=O)NCC(c1ccc2c(c1)OCO2)N1CCOCC1 (stereo not given) | inactive: 21.8% | –
70 | Cc1ccc(NC(=O)Cn2c(-c3ccc4c(c3)OCO4)cn(-c3ccccc3)c2=O)cc1 | inactive: -7.32% | –
71 | Cc1ccc2c(c1)c1c(c(=O)n(Cc3ccccc3)c(=O)n1CC(=O)Nc1ccccc1C)n2C | inactive: 0.454% | –
72 | COc1ccc(-c2c3c(=O)n(C)c(=O)n(C)c3c3c(-c4ccc(C)cc4)nc4ccccc4n23)cc1 | inactive: -5.28% | –

Row | Structure (SMILES) | activity change, negative = cytotoxicity | Potency
73 | CC(=O)N1CCc2cc(Br)cc(S(=O)(=O)CCC(=O)N3CCN(c4ccccc4)CC3)c21 | inactive: 13.3% | –
74 | Cc1nc2cc(C(=O)NC3CCCCCC3)ccc2n1-c1ccc(Br)cc1 | inactive: -15.5% | –
75 | Cc1ccc(Cn2c(SCC(=O)NCc3ccccc3Cl)nc3ccsc3c2=O)cc1 | inactive: 14% | –
76 | Fc1ccc(Nc2nc(SCc3ccccc3F)nc3ccccc23)cc1 | inactive: -8.03% | –
77 | COc1cc(NC(=O)CCCc2nnc3n(CC(C)C)c(=O)c4sccc4n23)cc(OC)c1 | inactive: 6.74% | –
78 | CN(C)S(=O)(=O)c1ccc2c(c1)N(CC(=O)Nc1ccc(F)cc1)C(=O)CS2 | inactive: 0.0249% | –
79 | Cc1cc(-c2ccc(C)c(S(=O)(=O)NCCc3ccc(S(N)(=O)=O)cc3)c2)on1 | inactive: -3.09% | –
80 | CC(C)c1ccc(NS(=O)(=O)c2ccc3[nH]cc(C(=O)NCC4CCCO4)c(=O)c3c2)cc1 (stereo not given) | inactive: -0.434% | –
81 | CCOc1ccc2nc(N3CCCC(C(=O)Nc4ccc(OC)c(Cl)c4)C3)sc2c1 (stereo not given) | inactive: 10.9% | –
82 | CCc1ccc(S(=O)(=O)Nc2ccc3[nH]c(=O)sc3c2)cc1 | inactive: 6.25% | –
83 | Cc1cccc(NC(=O)c2sc3nc4c(cc3c2N)CN(C(C)C)CC4)c1 | inactive: -5.16% | –
84 | CC1=C(C(=O)OC2CCCCCC2)C(c2cccc(F)c2F)CC(=O)N1 (stereo not given) | inactive: 5.93% | –
85 | Cc1cccc(N2CCN(C(=O)CN3C(=O)COc4ccc(S(=O)(=O)N5CCOCC5)cc43)CC2)c1C | inactive: -0.365% | –
86 | Cc1ccc(NC(=O)Cn2c(=O)n(CCCCC(=O)NCCc3ccc(Cl)cc3)c(=O)c3ccccc32)cc1 | inactive: 22.9% | –
87 | COc1ccc(CCNC(=O)c2oc(=O)c3ccccc3c2-c2ccccc2)cc1OC | inactive: -18.7% | –
88 | COc1ccc(CNC(=O)CN2C(=O)COc3ccc(S(=O)(=O)N4CCC(C)CC4)cc32)cc1 | inactive: 4.07% | –
89 | COc1cc(NC(=O)CCS(=O)(=O)c2nc(-c3ccc4c(c3)OCO4)cc(C(F)(F)F)n2)cc(OC)c1OC | inactive: 15.7% | –
90 | COC(=O)c1sc(N2C(=O)c3oc4ccccc4c(=O)c3C2c2ccc(O)cc2)nc1C (stereo not given) | inactive: -10.9% | –
91 | CCCCNC(=O)C1CCC(CNS(=O)(=O)c2ccc(C)cc2)CC1 (stereo not given) | inactive: 14.9% | –
92 | Cc1nc(NC(=O)c2c(-c3ccccc3)c(-c3ccccc3)nn(C)c2=O)sc1C | inactive: 4.83% | –
93 | COCCCNC(=O)CSc1nc2cc3c(cc2c(=O)n1CCCCCC(=O)NCc1ccc2c(c1)OCO2)OCO3 | inactive: -0.316% | –
94 | COc1ccc(-c2cc(=O)c3cc(OCC(=O)OC(C)C)ccc3o2)cc1 | inactive: -0.795% | –
95 | COc1ccccc1NC(=O)C1CCN(S(=O)(=O)c2ccc3[nH]c4c(c3c2)CCCCC4)CC1 | inactive: 2.17% | –
